Hit rate of the full screen: of about 150,000 compounds, about 540 (0.36%) showed an effect of 50% or more. The list shows a part of the results.
The compounds below were run on Plasmodium falciparum (assay: Primary screen in NF54 nanoGlo assay, in single point, at 2uM, 72h; a lower Z score goes with more inhibition). Details: timepoint 72 hour.
Assay type: functional, Erythrocyte
For `CN1CCn2nc(NC(=O)NCc3cc(C(F)F)on3)cc2C1`, the “% Inhibition” value was -8% and the Z score was 0.9.
With `CN(CCCn1ccnc1)Cc1nc2ccccc2o1` the “% Inhibition” value was 2% and the Z score was -0.17.
For `CCN1C(=O)[C@@H]2CC3(CCN(C(=O)c4ncoc4-c4cccc(C)c4)CC3)CN2C1=O`, the “% Inhibition” value was 2% and the Z score was -0.25.
With `O=C1N(Cc2cccc(F)c2F)CCC[C@@]1(O)CN1CCN(CC2CCC2)CC1` the “% Inhibition” value was -8% and the Z score was 0.92.
`CC(=O)NC1(c2noc(-c3cnccn3)n2)CCCCC1` was tested, and the “% Inhibition” value was -9% and the Z score was 1.04.
With `COc1cccc2c(=O)n([C@H]3C[C@H]4CC[C@@H]3C4)cnc12` the “% Inhibition” value was -8% and the Z score was 1.05.
For `Cc1ccc(-n2ccnc2)c(C(=O)N2CC[C@H](C(=O)O)C2)c1`, the “% Inhibition” value was 4% and the Z score was -0.48.
In the case of `O=C(c1cccc(S(=O)(=O)N2CCCC2)c1)N1CCC[C@H]1c1nnc2ccccn12`, the “% Inhibition” value was -3% and the Z score was 0.48.
In the case of `Cc1c(CN(C)[C@H]2CCN(C)C2)oc2ccccc12`, the “% Inhibition” value was -13% and the Z score was 1.22.
For `CCOc1ccccc1NC(=O)N1CCN(c2ccc(-c3noc(C4CCC4)n3)cc2)CC1`, the “% Inhibition” value was 0% and the Z score was 0.08.
`O=C(Nc1ccccc1)c1ccc(N2C3CCC2COC3)nn1` was tested, and the “% Inhibition” value was -5% and the Z score was 0.97.
`CC(=O)c1cnc(N2CCC3(CC2)COC(=O)O3)nc1C` was tested, and the “% Inhibition” value was -9% and the Z score was 0.84.
With `c1ccc(-c2ncsc2CNc2ncnc3c2CCNCC3)cc1` the “% Inhibition” value was 2% and the Z score was -0.41.
For `CC(C)CCN1C(=O)CC[C@@H]2CN(C(=O)c3ncoc3C3CC3)CC[C@@H]21`, the “% Inhibition” value was -3% and the Z score was 0.43.
With `CC1CC(C(=O)NCc2nnc(C3CCOC3)[nH]2)CC(C)(C)C1` (stereo not drawn) the “% Inhibition” value was -8% and the Z score was 1.54.
In the case of `CCOC(=O)c1ccccc1N(CC)C(=O)c1cnc(C)cn1`, the “% Inhibition” value was 1% and the Z score was -0.09.
With `CC(=O)NCC(=O)NCc1nc(C(=O)NCc2ccc(F)cc2)no1` the “% Inhibition” value was -14% and the Z score was 1.49.
For `CCCOc1ccc(-c2cccc(C(=O)N3CCCO[C@@H](C)C3)c2)cc1CO`, the “% Inhibition” value was 0% and the Z score was -0.02.
With `CCN1CCN(C(=O)CN2CCCc3nc(-c4ccccc4)ncc3C2=O)CC1` the “% Inhibition” value was -6% and the Z score was 0.87.
For `Cn1c(-c2ccc(Cl)cc2)nnc1N1CCC[C@H](CCO)C1`, the “% Inhibition” value was -10% and the Z score was 1.29.
In the case of `Cc1cc(C(F)(F)F)nc(N2C[C@H](F)C[C@H]2C(N)=O)n1`, the “% Inhibition” value was 13% and the Z score was -1.53.
In the case of `Cc1cccc(C(=O)N2CCC[C@H](CN3CCC(C)CC3)CC2)c1`, the “% Inhibition” value was 1% and the Z score was -0.23.
With `C[C@H]1OCC[C@H]1n1nnnc1N1CCC2(CCCCC2)C1` the “% Inhibition” value was -2% and the Z score was 0.31.
`CC(C)C1OCCC1CNc1ccccc1S(C)(=O)=O` (stereo not drawn) was tested, and the “% Inhibition” value was 3% and the Z score was -0.5.
In the case of `O=C1CC2(CN(C(=O)C(F)(F)c3ccccc3F)C2)NCCN1`, the “% Inhibition” value was 6% and the Z score was -0.75.
`CCOc1nc2ccccc2nc1C(=O)N1CCN(c2cccc(Cl)c2)CC1` was tested, and the “% Inhibition” value was -11% and the Z score was 1.6.
With `c1coc(CCCN2CCN(c3ccnc4nncn34)CC2)c1` the “% Inhibition” value was -7% and the Z score was 1.3.
`Cc1noc([C@@]23CN(C(=O)CCO)C[C@@H]2CCN(C(=O)c2cccnc2)C3)n1` was tested, and the “% Inhibition” value was -1% and the Z score was 0.09.
In the case of `Cn1ncnc1CCN1CC(c2ccccc2)(c2ccccc2)CCC1=O`, the “% Inhibition” value was 1% and the Z score was -0.16.
With `C[C@H](Oc1cc2c(nn1)CCCC2)C1CC1` the “% Inhibition” value was -5% and the Z score was 0.58.
In the case of `COCC1(C(=O)N2CCN(c3cncc4ccccc34)CC2)CCC1`, the “% Inhibition” value was 44% and the Z score was -6.02.
`CC(=O)N1CCc2cc(Br)c(S(=O)(=O)N3CC(=O)N(CCc4ccccc4)C(=O)C3)cc21` was tested, and the “% Inhibition” value was -4% and the Z score was 0.43.
In the case of `CCO[C@H]1CN(C(=O)c2ncccc2O)C[C@@H]1O`, the “% Inhibition” value was -6% and the Z score was 0.6.
With `CC(C)C[C@H](NC(=O)c1ccncc1F)C(=O)Nc1cc[nH]n1` the “% Inhibition” value was -14% and the Z score was 1.98.
`COc1ccc(C(=O)N2CC(=O)N3C[C@@H](OC)C[C@H]3C2)cc1F` was tested, and the “% Inhibition” value was -7% and the Z score was 1.
For `CCc1nc(N2CCCN(S(=O)(=O)N3CCOCC3)CC2)ncc1C`, the “% Inhibition” value was -5% and the Z score was 0.92.
In the case of `COc1ccc(NC(=O)[C@@H](c2ccc(C)cc2)N(Cc2ccco2)C(=O)c2cnccn2)cc1`, the “% Inhibition” value was 0% and the Z score was -0.01.
For `CC1(C)CC2CC(C)(CN2c2nc(-c3ccccc3)nc3ccccc23)C1` (stereo not drawn), the “% Inhibition” value was 4% and the Z score was -0.53.
For `O=C1COc2c(cccc2NC(=O)c2ccccc2)N1`, the “% Inhibition” value was -10% and the Z score was 1.28.
For `Cc1cc(C#N)cc(N(C2CC2)S(=O)(=O)c2ccc(C#N)nc2)n1`, the “% Inhibition” value was -3% and the Z score was 0.44.
For `CC(C)c1ncc(CN(C)S(=O)(=O)N(C)C2CCCCC2)cn1`, the “% Inhibition” value was -9% and the Z score was 1.04.
For `COCCNc1ncccc1-c1noc([C@@H]2CCCN2Cc2ccccc2OC)n1`, the “% Inhibition” value was 30% and the Z score was -3.38.
With `CC1CC2CCCCC2N1C(=O)C1CCNC(=O)C1` (stereo not drawn) the “% Inhibition” value was 31% and the Z score was -3.45.
For `CC(C)(Nc1ccc2c(c1)OCCO2)c1nnnn1-c1ccc(Cl)cc1`, the “% Inhibition” value was -11% and the Z score was 1.52.
In the case of `CCN1CCN(c2ccc(S(=O)(=O)N3CCOCC3)cc2N)CC1`, the “% Inhibition” value was 1% and the Z score was -0.24.
For `CCC1=C(c2ccc(C)cc2)S(=O)(=O)N=C1N1CCC(C(=O)NC2CCC(C)CC2)CC1` (stereo not drawn), the “% Inhibition” value was -12% and the Z score was 1.49.
For `CCCc1ncncc1C(=O)N(C)Cc1c(C)nn(C(C)C)c1C`, the “% Inhibition” value was -1% and the Z score was 0.13.
For `Cc1nc(CN2CCC3(CC2)[C@H](O)C[C@@H]3OCCO)sc1C`, the “% Inhibition” value was 1% and the Z score was -0.25.
For `CC[C@H]1c2cccn2CCN1C(=O)c1cc(C#N)c[nH]1`, the “% Inhibition” value was 5% and the Z score was -0.82.
With `Cc1cc(Cl)c2ccccc2c1NC(=O)NCc1nnn(C(C)(C)C)n1` the “% Inhibition” value was 4% and the Z score was -0.84.
In the case of `CCCc1cc(C(=O)N2C[C@@H]3OC(=O)N(CCCN4CCOCC4)[C@@H]3C2)[nH]n1`, the “% Inhibition” value was 3% and the Z score was -0.61.
For `CC(C)ONC(=O)CCc1cccc(O)c1`, the “% Inhibition” value was -11% and the Z score was 1.21.
With `CC(C)c1nc(CCNC(=O)CCCc2cn[nH]c2)no1` the “% Inhibition” value was 0% and the Z score was 0.
In the case of `Cc1cc(C)c(-n2cccn2)c(CN2CCN3CCC[C@H]3C2)c1`, the “% Inhibition” value was -4% and the Z score was 0.51.
With `COCCN(CC(=O)N[C@H]1CCCCNC1=O)C(=O)OC(C)(C)C` the “% Inhibition” value was 4% and the Z score was -0.65.
`Cc1cnc2cc(C(=O)N[C@@H](C)C3CCOCC3)ccn12` was tested, and the “% Inhibition” value was -10% and the Z score was 1.39.
With `CC1CC(C(N)=O)c2ccccc2N1Cc1cc(F)cc2c1OCOC2` (stereo not drawn) the “% Inhibition” value was -5% and the Z score was 0.86.
`CC(=O)Nc1nc2ccc(NC(=O)c3cc(-c4ccccc4)[nH]n3)cc2s1` was tested, and the “% Inhibition” value was -2% and the Z score was 0.37.
With `CCOC(=O)N1CCN([C@H]2CCCN(C(=O)C(=O)CC(C)C)C2)CC1` the “% Inhibition” value was -10% and the Z score was 1.31.
With `NC(=O)c1ccc(/C=C/C2CCCCC2)nc1` the “% Inhibition” value was -15% and the Z score was 2.78.
For `COC(=O)N1CCC2(O)CCCCC2[C@@H]1c1ccc(OC)cc1OC` (stereo partly drawn), the “% Inhibition” value was -1% and the Z score was 0.13.
With `CS(=O)(=O)N1C[C@H]2CN(Cc3cc(C(F)(F)F)ccc3Cl)CC[C@@]2(CO)C1` the “% Inhibition” value was 1% and the Z score was -0.21.
In the case of `Cc1c(CN(C)C(=O)C[C@@H]2C(=O)Nc3c(F)cccc32)cnn1C`, the “% Inhibition” value was -1% and the Z score was 0.22.
`c1cncc(CNc2ccc3c[nH]nc3c2)c1` was tested, and the “% Inhibition” value was -2% and the Z score was 0.29.
For `CCCc1cc(C(=O)NCc2cccnc2N2CCN(C(C)=O)CC2)no1`, the “% Inhibition” value was -3% and the Z score was 0.31.
In the case of `O=C(O)c1c(S(=O)(=O)NCCOc2ccccc2)sc2c1CCNC2`, the “% Inhibition” value was -4% and the Z score was 0.61.
With `C[C@H](OC(=O)C1(Cc2nc3ccccc3s2)CCCC1)C(=O)N1CCCC1` the “% Inhibition” value was 26% and the Z score was -3.33.
In the case of `COC[C@@](C)(O)CNC(=O)C(=O)NCCc1ccccc1`, the “% Inhibition” value was -5% and the Z score was 0.8.
For `C[C@@H](C(=O)N1CCCC1)S(=O)(=O)c1cccc(Cl)c1`, the “% Inhibition” value was 0% and the Z score was -0.07.
In the case of `COc1ccc(OC)c(S(=O)(=O)N[C@H]2CCc3nn(CC4CC4)c(=O)n3CC2)c1`, the “% Inhibition” value was 29% and the Z score was -3.91.
`N#Cc1nccnc1NC1c2ccccc2CC1O` (stereo not drawn) was tested, and the “% Inhibition” value was -5% and the Z score was 0.66.
In the case of `CC1CN(C(=O)OC(C)(C)C)CC(C)N1C(=O)C1CCOC1` (stereo not drawn), the “% Inhibition” value was -8% and the Z score was 1.52.
With `CC(C)c1oncc1NC(=O)CS(=O)(=O)C(C)(C)C` the “% Inhibition” value was -14% and the Z score was 1.46.
In the case of `Cc1cnc(C(=O)N[C@@H](C)Cn2ccnc2)cn1`, the “% Inhibition” value was -6% and the Z score was 1.06.
For `CO[C@H]1CCN(c2ccc(C(=O)NCCC3=CCCCC3)cc2)C1`, the “% Inhibition” value was -7% and the Z score was 1.33.
With `CC(C)C[C@H](NS(=O)(=O)c1cccc(C#N)c1)C(=O)N(C)C` the “% Inhibition” value was 3% and the Z score was -0.41.
`Cn1c(CO)nnc1C1CCN(C(=O)[C@H]2CCOc3ccccc3C2)CC1` was tested, and the “% Inhibition” value was -9% and the Z score was 0.92.
With `O=C(Nc1n[nH]c(C2CC2)n1)c1cc(-c2ccccc2)n[nH]1` the “% Inhibition” value was -4% and the Z score was 0.55.
For `Cc1cccc(CCC(=O)N2CC3CC2CO3)c1` (stereo not drawn), the “% Inhibition” value was -23% and the Z score was 2.66.
For `CCCCNC(=O)N1CC2(CC(=O)Nc3nccn32)C1`, the “% Inhibition” value was 14% and the Z score was -2.6.
`COc1cc(CN2CC(O)C2)ccc1OC[C@@H](O)CN1CCCCCC1` was tested, and the “% Inhibition” value was -1% and the Z score was 0.2.
In the case of `C=Cc1ccc(-c2ccc(C(=O)NC(C)(C)CCC(=O)NC)cc2)nc1`, the “% Inhibition” value was -2% and the Z score was 0.34.
With `CN(C)C(=O)[C@@]12CN(C(=O)CCc3ccccc3)C[C@@H]1CN(C(=O)c1ccncc1)C2` the “% Inhibition” value was -16% and the Z score was 2.19.
For `COC(=O)c1ccc(Oc2cccc(NC(=O)c3ccccc3F)c2)cc1C(=O)OC`, the “% Inhibition” value was 0% and the Z score was -0.06.
